Data on 45 sequences can be found in the supplement of paper PMC11417369.

± gives the standard deviation of the averaged measurements. This is one part of the list.

The assay concerns PfAP2-LT AP2 domain (GST-tagged). The experiment in a line: gcPBM binding intensity (ln(normalized median fluorescence intensity)); higher = stronger DNA binding. In outline: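 GST-fused DNA-binding domains of P. falciparum, expressed in E. coli, were applied at about 25 μg on average for 1 h to an Agilent 4 × 180k array of primer-extended double-stranded 36-bp intergenic genomic probes and negative controls. Binding intensity is the highest Masliner-normalised natural-log median intensity across replicate spots of either probe orientation, measured with Alexa488 anti-GST antibody and a 488 nm scan.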
For “CATCATAGAGTGGAGTGTACAAATATGTCAACATAT [XGTACX_site2264]”, the “gcPBM binding intensity (ln)” value was determined as 9.1 ± 0.48.
Next, “TATAAAAATGTGTATGTACACACTTTATTTTTAATA [CACACA_site2532]”: 9.18 ± 0.28; “TGTCCAATTTTTTATCGTACATAATATATAAATAAA [XGTACX_site1705]”: 8.45 ± 0.39.
Take “AAATATAAAAATAGCACACATATATACATATATATA [CACACA_site56]”: the “gcPBM binding intensity (ln)” value was found to be 8.92 ± 0.4.
Then “AGTATTTCCATATGTACATGCAAAAGGAAAGATATA [TGCATGCA_site850]”, with 8.73 ± 0.42; and “TATTTTTCCCTATGCACACACACCGTATATATAATA [CACACA_site4758]”, with 9.55 ± 0.29; and “AGAAACGTAAGTTATACACACATGTCAAAAGAAAAA [CACACA_site312]”, with 9.17 ± 0.49.
Then “GAGCTTTGGATGAAAGCATGCGATGAATGGATAAAA [TGCATGCA_site786]”, with 8.81 ± 0.39; and “AAATTAAAATATATATGTACATATATATATATATAT [XGTACX_site7844]”, with 9.45 ± 0.35; and “ATAAAAATAAATAAATGTACATATATATATATATAT [XGTACX_site1277]”, with 9.62 ± 0.2.
Next, “TAAATTAAAAAAAAAAACAAAAAAAAAGCAACAAAA [CACACA_negctrl_site1318]”: 8.55 ± 0.61; “TAAATAGGAAAACCTATACACACTTTAAAAAAAATA [CACACA_site1621]”: 8.65 ± 0.54.
Regarding “AACACAAATAAGTATTTGGATTATATTACATTTATA [CACACA_negctrl_site465]”, the “gcPBM binding intensity (ln)” value is 8.6 ± 0.51.
Take CTGTAAAATGTGATGGTGCATATTAATTTAGTTGTA: the “gcPBM binding intensity (ln)” value turned out to be 8.75 ± 0.35.
Next, “ATTTATTTCAATAAACTTCTTTTCTTTAACAATTAC [CACACA_negctrl_site1222]”: 8.38 ± 0.5; “TTTGAATTTTTTAACACACACATGTCTGGATATATA [CACACA_site1645]”: 9.35 ± 0.45.
Then “TTTTCCTTAACACACGTTTATATAAAAAATTAAAAT [XGTACX_negctrl_site115]”, with 8.45 ± 0.36.
In the case of “GAAAAAAAAAAAAAAAGTACATGTCATAAATTGTAT [XGTACX_site1461]”, the “gcPBM binding intensity (ln)” value turned out to be 8.74 ± 0.57.
Consider “CAATGTTAATATAATACACACAATATGTATTTGTCT [CACACA_site1162]”, for which the “gcPBM binding intensity (ln)” value was 9.09 ± 0.49.
Then “ATCCATCTTTTATATAGTACTTTATAATATATATAT [XGTACX_site8064]”, with 8.86 ± 0.39; and “TTGTTAATATATATATGTACTTATTTATTTATTTAT [XGTACX_site2274]”, with 8.75 ± 0.54.
Then “TTATAGTATTTATAATGTACAAATATATTTTATTTT [XGTACX_site5015]”, with 8.56 ± 0.48; and “TCAAATAGAAAATAAAGTACTTAATTTTTAGGAACA [XGTACX_site1446]”, with 8.6 ± 0.61.
Then “ATATATATATTTATAGTGCATTTATATTAAAATATC [GTGCAC_site9818]”, with 8.61 ± 0.45; and “TTGAATATTTAAAAACGTACATAAAATTATTTGATT [XGTACX_site5422]”, with 8.45 ± 0.53.
In the case of “ATATTTATATTTTTTTGTACATATATAATTTTATAA [XGTACX_site4151]”, the “gcPBM binding intensity (ln)” value came out at 8.59 ± 0.38.
Next, “ATATATATTTATATATGTACATATTAATATATATAT [XGTACX_site1144]”: 8.68 ± 0.39.
Next, “CCATTTATTATTTGGGGTACATTTAATTAATATTTT [XGTACX_site5940]”: 8.78 ± 0.41; “CTTTATTATAAGATTACACACATGTGTTATAATTTA [CACACA_site3169]”: 8.96 ± 0.45; TTGACCTTAAGAAGGTTGCACTAATCATTCAAAGTT: 8.47 ± 0.48.
Next, “TGAAAATTTTAATGAGGAAATAAAATAAATATAATA [GTGCAC_negctrl_site159]”: 8.42 ± 0.57; “ATAGGCACTTTTTGCACACGTATGAATAACAAAATA [CACACA_site5069]”: 9.21 ± 0.42; “CCAAAGGGGGTATACTGTACATATAGTGGTTATATA [XGTACX_site1515]”: 9.085 ± 0.035.
Consider “ATTTAAGGGGTGTATGCACACGACTATTCCGTATGA [CACACA_site4738]”, for which the “gcPBM binding intensity (ln)” value was 9.01 ± 0.41.
Next, “AATATTTTAAGGCACACACACAAAAAAAAAAAAAAA [CACACA_site2890]”: 9.3 ± 0.63; “TAATTTAGTATCTTTACATGCGGGCATTATGTCATA [TGCATGCA_site167]”: 8.74 ± 0.4; “ACTTGTTTTCAATGTAAAATACAATTTTCATTTATT [CACACA_negctrl_site435]”: 8.66 ± 0.52.
Turning to “CCAAAGAAATATAATACACACAAGAATATATTGGAT [CACACA_site6018]”, the “gcPBM binding intensity (ln)” value stood at 9.2 ± 0.41.
Next, “AATGAAAAATGTATCGTTAAAGGGTATCTTAAGGAT [XGTACX_negctrl_site222]”: 8.79 ± 0.39; “AAGTATTACAACCACACACACACCTATATATTATAT [CACACA_site4158]”: 9.89 ± 0.34; “AATTTAATATAATGCACACATAAAAAAAAAAAAAAA [CACACA_site123]”: 8.9 ± 0.44.
Next, “AAAAAAAAAAGACACACACACAAATACAAATACATA [CACACA_site6334]”: 10 ± 0.28; “TTTTAAACAAAAAATTGTACAATTAGTGTATAATCC [XGTACX_site778]”: 8.61 ± 0.45.
Next, “AAAGGAAATTAAAATTGATTACATATATAAAAAAAC [XGTACX_negctrl_site196]”: 8.62 ± 0.45; “AAATTCACAATGTTTGGTACACATAAAAAAAAAAGA [XGTACX_site7109]”: 8.73 ± 0.42.
